Measured values from PubChem BioAssay AID463173 (ICCB-Longwood Screening Facility, Harvard Medical School, 2010).
Among all 52,000 compounds or so, about 1,700 (3.3%) were called active. Cut-off read from the data, not from the text of the source: active = survival mostly below about 52% (no sharp cut-off); inactive = mostly above about 56%. This is one part of the list.

What follows are compounds tested on Wild type (assay: S. aureus survival, RN4220 and DeltatarO strains – OD600, teichoic acid synthesis inhibitors, primary screen (AID 463173)). Conditions: S. aureus RN4220 wild type/DeltatarO growth, OD600, 18 h, active compounds read low, screened at 18.75 µg/mL (by protocol).

Row | Structure (SMILES) | survival
1 | COC(=O)[n+]1ccc(N2CCOCC2)cc1 | inactive: 137%
2 | COc1ccc(C2c3cccn3CCN2S(=O)(=O)c2ccccc2[N+](=O)[O-])cc1OC (stereo not drawn) | inactive: 135%
3 | CC(CNC(=O)Cn1ccc2cc(S(=O)(=O)N3CCCCC3)ccc21)c1ccccc1 (stereo not drawn) | inactive: 72%
4 | O=C(NCC(c1ccc2c(c1)OCO2)N1CCOCC1)c1ccccc1F (stereo not drawn) | inactive: 101%
5 | CCc1ccc2occ(CC(=O)Nc3c(C(=O)Nc4ccc(OC)cc4)oc4ccccc34)c2c1 | inactive: 87%
6 | O=C(NCc1ccccc1)c1nnc(Cc2cccc(F)c2)o1 | inactive: 89%
7 | Cc1cccn2cc(-c3cccc(NS(=O)(=O)c4ccc(Cl)c(Cl)c4)c3)nc12 | inactive: 61%
8 | CCc1ccc(CNC(=O)CCc2c(C)nn(-c3ccc(N4CCCCC4)nn3)c2C)cc1 | inactive: 73%
9 | Cc1cc2nn(-c3ccc(F)cc3)nc2cc1NC(=O)c1ccc(OC(C)C)cc1 | inactive: 85%
10 | C1CCC(CNCC2CCCO2)CC1 (stereo not drawn) | inactive: 102%
11 | Cc1ccc2nc(Cl)c3cc(C(=O)N(C)C4CCCCC4)sc3c2c1 | inactive: 35%
12 | CCOc1ccc(CCNC(=O)C2CCN(C(=O)N3CC(CC)Oc4ccc(C)cc43)CC2)cc1 (stereo not drawn) | inactive: 86%
13 | CCn1c(CNC(=O)c2ccc(OC)cc2)nnc1SCC(=O)Nc1cccc(C)c1C | inactive: 139%
14 | CCOC(=O)c1c(C)oc2nc(C)nc(NCC3CCN(Cc4cccc(C)c4)CC3)c12 | inactive: 82%
15 | Cc1ccc(NC(=O)CSc2nc3ccc(NC(=O)c4cccs4)cc3s2)c(C)c1 | inactive: 86%
16 | COc1cccc(Cn2c(=O)n(-c3cccc(Cl)c3C)c(=O)c3c4c(sc32)CN(C(C)=O)CC4)c1 | inactive: 75%
17 | Cc1ccc(NC(=O)Cn2c(=O)n(-c3ccc(CC(=O)NCC4CCCO4)cc3)c(=O)c3ccccc32)cc1 (stereo not drawn) | inactive: 104%
18 | CCCNC(=O)N1CCc2cc(OC)c(OC)cc2C1c1cc2cc3c(cc2[nH]c1=O)OCO3 (stereo not drawn) | inactive: 115%
19 | CCOc1ccc(-n2c(=O)c3c4c(sc3n(Cc3cccc(Cl)c3)c2=O)CCCC4)cc1 | inactive: 71%
20 | CC1=C(c2ccc(C)c(C)c2)S(=O)(=O)N=C1N1CCN(c2cccc(C(F)(F)F)c2)CC1 | inactive: 85%
21 | CCCCN1CC(c2nc3ccccc3n2CCCCOc2c(C)cccc2C)CC1=O (stereo not drawn) | inactive: 61%
22 | CCCC(=O)N(c1ccc2oc(-c3ccccc3)c(C(=O)OCC)c2c1)S(=O)(=O)c1ccc(C)cc1 | inactive: 153%

Row | Structure (SMILES) | survival
23 | COCCCNC(=O)Cn1c(=O)n(CCCC(=O)NCc2ccc(C)cc2)c(=O)c2ccccc21 | inactive: 70%
24 | O=C(NCC(c1ccc2c(c1)OCO2)N1CCOCC1)c1ccc(F)cc1 (stereo not drawn) | inactive: 65%
25 | Cc1ccc(/C=C(\C#N)c2nc(-c3cc4c(ccc5ccccc54)oc3=O)cs2)cc1 | inactive: 130%
26 | CCOc1ccc(Sc2cc(C(=O)NCCc3ccc(OC)c(OC)c3)c3ccccc3n2)cc1 | inactive: 88%
27 | O=C(Nc1ccccc1)Nc1cccc2nsnc12 | inactive: 123%
28 | CC(C)CN(c1ccccc1)S(=O)(=O)c1nnc(NC(=O)c2ccco2)s1 | inactive: 47%
29 | CC(=O)c1c(C)oc2ccc(N(C(=O)Oc3ccccc3)S(=O)(=O)c3ccc(Br)cc3)cc12 | inactive: 121%
30 | Cc1cccc(C(=O)Nc2ccccc2-c2nc(-c3ccccc3)no2)c1 | inactive: 86%
31 | CCn1cc(C(=O)N2CCN(c3ccccc3OC)CC2)c(=O)c2cc(S(=O)(=O)N3CCCCC3)ccc21 | inactive: 90%
32 | COc1ccc(-c2nn(-c3ccccc3)cc2C(=O)Nc2ccccc2OC)cc1 | active: 3%
33 | CCOc1ccccc1NC(=O)Cn1c(=O)n(Cc2ccc(C(=O)NCCCOC)cc2)c(=O)c2ccccc21 | inactive: 97%
34 | COc1cc(OC)c(NC(=O)c2oc3ccc4c(c3c2C)C(=O)CC(C)(C)O4)cc1Cl | inactive: 113%
35 | O=C(CCSCc1ccccc1F)N1CCN(c2ccc(F)cc2)CC1 | inactive: 63%
36 | COc1ccc(NC(=O)N2CCc3c(sc4c3CCCC4)C2c2ccc(F)cc2)cc1 (stereo not drawn) | inactive: 95%
37 | Cn1cc(C(=O)NCc2ccc(F)cc2)c(=O)c2cc(S(=O)(=O)N3CCCCC3)ccc21 | inactive: 74%
38 | CC(C)c1ccc(Nc2nc3ccc(C(=O)c4ccccc4)cc3n3cnnc23)cc1 | inactive: 72%
39 | CCn1c(=O)c2cc(C(=O)N(C)c3cc(C)ccc3C)sc2c2ccccc21 | inactive: 125%
40 | Cc1ccc(NC(=O)Nc2nnc(N3CCCCC3)s2)c(C)c1 | inactive: 97%
41 | CCc1ccc(CNC(=O)c2cc3c(=O)oc4ccc(C)cc4c3s2)cc1 | inactive: 91%
42 | CCN(C(=O)c1sc2nc3n(c(=O)c2c1C)CCCCC3)c1ccccc1F | inactive: 80%
43 | CCNc1nc(NCC)nc(N(n2cnnc2)S(=O)(=O)c2ccc(C)cc2)n1 | inactive: 45%
44 | CN(C)C(=O)c1ccc(S(=O)(=O)NCc2ccccc2Cl)s1 | inactive: 87%

Row | Structure (SMILES) | survival
45 | COc1cc(OC)cc(-n2c(=O)[nH]c3cc(C(=O)NCCc4ccc(C)cc4)ccc3c2=O)c1 | inactive: 95%
46 | COc1ccc(NC(=O)c2ccc3snnc3c2)cc1OC | inactive: 103%
47 | COc1ccc(-c2cc(C(F)(F)F)nc(SCC(=O)NCc3ccc(F)cc3)n2)cc1 | inactive: 90%
48 | COc1cccc(NC(=O)Cn2c(=O)n(Cc3ccccc3)c(=O)c3c4c(sc32)CN(C(C)=O)CC4)c1 | inactive: 131%
49 | Cn1c(=O)c(C(=O)NCCN2CCNCC2)c(O)c2ccccc21 | inactive: 105%
50 | COc1ccc(-n2cc3c(c2-c2cccc(Br)c2)c(=O)n(C)c(=O)n3C)cc1OC | inactive: 52%
51 | CCCSc1nsc(NC(=O)CC)n1 | inactive: 121%
52 | CCCCc1ccc(NC(=O)Cn2cnc3c2c(=O)n(C)c(=O)n3C)cc1 | inactive: 112%
53 | COC(=O)c1ccccc1NC(=O)c1nc(SCc2ccccc2C)ncc1Cl | inactive: 90%
54 | Cc1cc(C)cc(C(=O)Nc2ccc(-c3cn4cccnc4n3)cc2)c1 | inactive: 86%
55 | O=C(Cn1cnc2ccccc2c1=O)Nc1ccc(S(=O)(=O)Nc2nccs2)cc1 | inactive: 103%
56 | O=C(NC1CCCCC1)C(Cc1ccccc1)N1C(=O)C2C3C=CC(C3)C2C1=O (stereo not drawn) | inactive: 94%
57 | Cc1ccc(Cn2cc(CCC(=O)NC3CCCCC3)c3ccccc32)cc1 | inactive: 87%
58 | Cc1cc(=O)[nH]c2nnc(SCc3cccc(F)c3)n12 | inactive: 85%
59 | O=c1c2oc3ccccc3c2n(Cc2ccccc2F)c(=O)n1Cc1ccco1 | inactive: 83%
60 | Cc1c(CNCCCc2ccccc2)c(C(=O)O)c(C)n1Cc1ccc(Cl)cc1 | inactive: 106%
61 | COC(=O)c1ccc(CSc2nc3ccccc3o2)cc1 | inactive: 127%
62 | COc1ccccc1NC(=O)CN1C(=O)C(c2ccc(F)cc2)=NC1(C)C | inactive: 92%
63 | Cc1cccc(N2CCN(C(=O)Nc3ccc(F)cc3)CC2C)c1 (stereo not drawn) | inactive: 100%
64 | Cc1ccccc1NC(=O)Nc1nnc(N(C)Cc2ccccc2)s1 | inactive: 91%
65 | Cc1c(Cl)cccc1N1CC(c2nc3ccccc3n2Cc2ccccc2F)CC1=O (stereo not drawn) | inactive: 44%
66 | Oc1ccccc1-c1nc(/C=C/c2ccc(F)cc2)no1 | inactive: 85%

Row | Structure (SMILES) | survival
67 | CCCCCSc1nnc2c(n1)OC(c1ccc(C)s1)N(C(C)=O)c1ccccc1-2 (stereo not drawn) | inactive: 34%
68 | COc1ccc(S(=O)(=O)NC2(C(F)(F)F)NC(=O)N(CCc3ccccc3)C2=O)cc1 (stereo not drawn) | inactive: 94%
69 | CCS(=O)(=O)c1c(Nc2ccc(F)c(Cl)c2)sc(C(=O)c2ccccc2)c1N | inactive: 65%
70 | Cc1cccc(NC(=O)Cn2c(=O)n(Cc3ccc4c(c3)OCO4)c(=O)c3ccccc32)c1 | inactive: 77%
71 | Cc1ccc(N2CCN(C(=O)c3nn(C)c4c3CS(=O)(=O)c3ccccc3-4)CC2C)cc1 (stereo not drawn) | inactive: 76%
72 | Cc1ccc(-c2nnn(CC(=O)N(Cc3ccccc3)C(C(=O)NC3CCCC3)c3ccco3)n2)cc1 (stereo not drawn) | inactive: 99%
73 | CCOc1ccc(-c2ccc(NS(=O)(=O)c3cc(C)ccc3OC)cc2)nn1 | inactive: 93%
74 | O=C(C1CCC1)N1CCN(c2ccccc2)CC1 | inactive: 98%
75 | CC1CCCN(c2nc3nonc3nc2Nc2cccc(Cl)c2)C1 (stereo not drawn) | active: 0%
76 | Cc1cc(=O)[nH]c(SCC(=O)N2CCN(c3ccccc3)CC2)n1 | inactive: 87%
77 | COc1ccc(-c2nc3ccc(C(=O)NCc4ccc(C)cc4)cc3nc2-c2ccc(OC)cc2)cc1 | inactive: 91%
78 | O=C(CC1N=C2c3ccccc3N=C(SCc3ccccc3Cl)N2C1=O)NC1CCCCC1 (stereo not drawn) | inactive: 85%
79 | COc1ccc(Cl)cc1-n1c(CCC(=O)O)ccc1-c1ccc(C)cc1 | inactive: 13%
80 | COc1ccc(NC(=O)c2oc3ccccc3c2NC(=O)Cc2ccc(F)cc2)c(OC)c1 | inactive: 86%
81 | CC1CCN(S(=O)(=O)c2ccc3c(c2)N(CC(=O)Nc2ccc(F)c(Cl)c2)C(=O)CO3)CC1 | inactive: 100%
82 | Cc1nn(CC(=O)N2CCN(c3ccccc3)CC2)c(=O)c2cc3sccc3n12 | inactive: 88%
83 | O=c1cc(O)c2c(=O)n3c4c(cccc4c2o1)CCC3 | inactive: 121%
84 | CCC(=O)N1CCc2cc(CNS(=O)(=O)c3cc(Cl)ccc3OC)ccc21 | inactive: 68%
85 | COc1ccc(Br)cc1CNC(=O)CCSCc1ccc(Cl)cc1 | inactive: 80%
86 | Cc1ccc(OCCn2c(COc3ccc(Cl)cc3)nc3ccccc32)cc1 | inactive: 74%
87 | CCN1CCN(c2cc(C)c3cc(NC(=O)c4cc(OC)cc(OC)c4)ccc3n2)CC1 | inactive: 83%
88 | CCc1ccccc1NC(=O)Cn1c(=O)ccc2cc(S(=O)(=O)N3CCC(C)CC3)ccc21 | inactive: 83%
